Measured values as given in PubChem BioAssay AID504706 (National Center for Advancing Translational Sciences (NCATS), 2011).
The campaign covered roughly 320,000 compounds. About 200 (0.062%) were called active. The inconclusive results got no clear call from the source; some entries with a clear call stand among them for comparison. Calls follow the shape of the dose curve; as a rule, active = well fitted activation curve with a large enough effect; inconclusive = small, poorly fitted or top-dose-only effect; inactive = no such curve, though single readings can be large or run the other way. No potency is given beside an inconclusive call; the fits are too rough.

Experiment: qHTS assay for re-activators of p53 using a Luc reporter; also: nearly all actives have a fitted effect of over 45% in size; as to activity change, positive = activation: % of control where 0% means no effect
Conditions: H1299 p53-A138V BP100-luciferase reporter, luminescence, 24 h; series mostly up to 92.2 µM; activity change, positive = activation: at the top concentration
In short: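 H1299 (p53-null), stable ts p53-A138V + BP100-Luc; 1000 cells/well, Opti-MEM/10% FBS; cpd 4 pt, 1:5; 24 h, 37 deg C, 5% CO2; detection reagent 10 min RT; luminescence.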
Potency is read from the fitted curve at half-maximal effect; tags tell the direction and shape of the fitted curve.

SMILES	Potency	activity change, positive = activation
Oc1cccc2ccc(/C=C/c3ccccc3Br)nc12	inconclusive [activator, full curve, poor fit]	–
N#C/C(=C\N1CCOCC1)c1ccccc1	–	inactive: 6.04%
Cc1cc(NCCO)c2cc(O)ccc2n1	–	inactive: 0.622%
COCC(=O)NC1CC(C)(C)Cc2c1cnn2-c1ccc(F)cc1 (stereo not given)	inconclusive [activator, partial curve, poor fit]	–
O=C(NC(=S)Nc1ccc2c(c1)OCO2)c1ccccc1	–	inactive: 24%
Cc1ccc(O)c(C2=Nc3ccccc3N=C(c3cccc([N+](=O)[O-])c3)C2)c1	inconclusive [activator, single point]	–
O=S(=O)(c1ccc(Cl)s1)N1CCN(C/C=C/c2ccccc2)CC1	–	inactive: 10.8%
NS(=O)(=O)c1ccc(CCNC(=O)COC(=O)CC(c2ccccc2)c2ccccc2)cc1	inconclusive [activator, single point]	–
COC(=O)c1ccccc1NC(=O)c1cccc(COc2ccccc2Cl)c1	inconclusive [activator, partial curve, poor fit]	–
Cc1ccc(CSc2nnc(-c3ccco3)o2)cc1	–	inactive: 26.2%
Cc1ccccc1-c1cc(-c2ccccc2O)n[nH]1	inconclusive [activator, partial curve, poor fit]	–
CSc1ccc(NC(=O)CSc2nc3[nH]c(=O)cc(O)c3s2)cc1	inconclusive [activator, single point]	–
COc1cccc(C(=O)NOCc2ccccc2)c1OC	inconclusive [activator, full curve, poor fit]	–
CCOc1ccccc1NC(=O)C(=O)/C=C(\O)c1cc(OC)ccc1OC	–	inactive: 0.0525%
CCOC(=O)c1[nH]c2ccc(OCC)cc2c1NC(=O)CN1CCN(c2ccccc2)CC1	inconclusive [activator, partial curve, poor fit]	–
CN1CC=C2C(C#N)=C(N)C(C#N)(C#N)C(c3cccc(Cl)c3Cl)C2C1 (stereo not given)	inconclusive [activator, single point]	–
O=C(Nc1ccc(F)cc1)c1cc(S(=O)(=O)Nc2ccc(F)cc2)cs1	–	inactive: -4.49%
CC(=O)NN1C(=O)/C(=C\c2ccc(O)cc2)SC1=S	–	inactive: 2.47%
O=C(COC(=O)c1cn(-c2ccccc2)nc1-c1ccc(F)cc1)Nc1ncc(Cl)cc1Cl	inconclusive [activator, partial curve, poor fit]	–
CCOC(=O)c1sc(NC(=O)c2ccco2)nc1C	inconclusive [activator, full curve, poor fit]	–
COC(=O)c1ccsc1NC(=O)c1ccc2c(c1)OCCO2	–	inactive: 1.11%
COc1ccc(N=Cc2c(O)c3ccccc3oc2=O)cc1	inconclusive [activator, partial curve, poor fit]	–
Cc1nc2cc(NC(=O)c3ccc(S(=O)(=O)N(C)c4ccccc4)cc3)ccc2o1	inconclusive [activator, partial curve, poor fit]	–
Cc1cccc(OCCCCCNCCO)c1	inconclusive [activator, single point]	–

SMILES	Potency	activity change, positive = activation
C#CCNC(=O)/C=C/c1ccc(OC)cc1	inconclusive [activator, partial curve, poor fit]	–
COc1ccc(CC(=O)n2nc(-c3ccccc3)nc2NCc2ccco2)cc1	inconclusive [activator, full curve, poor fit]	–
COC(=O)c1ccc(NC(=O)Nc2ccc(C)cc2)cc1	inconclusive [activator, single point]	–
COc1ccccc1-c1sc2cc3c(cc2c1C#Cc1ccccn1)OCO3	inconclusive [activator, partial curve, poor fit]	–
CS(=O)(=O)N(CC(=O)N1CCN(C(c2ccccc2)c2ccccc2)CC1)C1CCCCC1	–	inactive: 3.27%
CCc1c(C)nc2[nH]nc(-c3ccccc3)n2c1=O	inconclusive [activator, single point]	–
O=C(Nc1ccc(N2CCCC2)cc1)C(Cl)c1ccccc1 (stereo not given)	inconclusive [activator, partial curve, poor fit]	–
COc1cc(/C=N/NC(=O)C(=O)/C=C2\NC3(CCCC3)Cc3ccccc32)ccc1O	–	inactive: -4.35%
NC(=O)c1cccc(N=Cc2cc(Cl)cc(Cl)c2O)c1	–	inactive: 8.07%
O=C(N/N=C/c1ccccc1F)NC1CCCCC1	inconclusive [activator, full curve, poor fit]	–
CCCCNC(=O)/C(C#N)=C/c1ccc2c(c1)OCCO2	inconclusive [activator, full curve, poor fit]	–
COc1cccc(OCc2cc(C(=O)NCC3CCCCC3)no2)c1	inconclusive [activator, partial curve, poor fit]	–
Cc1cccc(CSc2ccc(-c3ccco3)nn2)c1	inconclusive [activator, partial curve, poor fit]	–
C=C(C)C1CCC(C)=C1COC(=O)Nc1ccccc1 (stereo not given)	inconclusive [activator, partial curve, poor fit]	–
Cc1cc(-c2ccccc2)c2nncn2n1	–	inactive: -2.35%
CCOc1ccc(-n2c(CCc3ccccc3)n[nH]c2=S)cc1	–	inactive: 0.611%
O=c1c2cn[nH]c2nc(SCc2c(F)cccc2F)n1-c1ccc(Cl)cc1	–	inactive: -0.523%
Cc1cc(C)cc(C(=O)Nc2nc3ccccc3[nH]2)c1	–	inactive: 23.9%
CC(=O)SC(C[N+](=O)[O-])c1cn(C(C)=O)c2ccccc12 (stereo not given)	–	inactive: -43.3%
COc1ccccc1NC(=O)CSc1nnc2ccccn12	inconclusive [activator, full curve, poor fit]	–
O=C(Nc1nc2ccc(SC(F)F)cc2s1)c1ccc(NS(=O)(=O)c2ccc(F)c(F)c2)cc1	inconclusive [activator, partial curve, poor fit]	–
Cc1nn(C)c(C)c1NC(=O)COc1ccc(F)cc1Br	–	inactive: 1.64%
O=[N+]([O-])c1ccc(-c2csc(Nc3ccccc3)[n+]2Cc2ccccc2)cc1	inconclusive [activator, partial curve]	–
CCCCOc1ccc(S(=O)(=O)n2c(C)nc3ccccc32)cc1	–	inactive: 8.24%

SMILES	Potency	activity change, positive = activation
O=C(Nc1ccc2c(c1)CCC2)c1ccc(F)c(S(=O)(=O)N2CCOCC2)c1	inconclusive [activator, full curve, poor fit]	–
CCN(CC)c1ccc(/C=C/C(=O)C2C(=O)C=C(C)OC2=O)cc1 (stereo not given)	inconclusive [activator, partial curve, poor fit]	–
Cc1ccc(CCNC(=O)C2CC(c3cc(C(F)(F)F)cc(C(F)(F)F)c3)=NO2)cc1 (stereo not given)	inconclusive [activator, full curve, poor fit]	–
O=C1CC(c2ccc(F)cc2)Sc2ccccc2N1 (stereo not given)	–	inactive: 1%
O=C(/C=C/C=C/c1ccccc1)CC1(O)C(=O)N(CCc2ccccc2)c2ccccc21 (stereo not given)	inconclusive [activator, single point]	–
COc1ccc(OCc2cc(C(=O)NCCN3CCCc4ccccc43)no2)c(Cl)c1	–	inactive: -4.22%
Cc1cccc(C(=O)N/N=C/c2ccc[nH]2)c1	inconclusive [activator, partial curve, poor fit]	–
O=C1CCCN2N=C(SCC(=O)N3N=C(c4ccc(Br)cc4)CC3c3ccc(F)cc3)SC2=N1 (stereo not given)	–	inactive: -0.58%
COc1ccc(NC(=O)CCNS(=O)(=O)c2ccc3c(c2)c(=O)n(C)c(=O)n3C)cc1	inconclusive [activator, partial curve, poor fit]	–
Cc1ccc(-c2nnc(N(C)C(=O)C3CCCO3)s2)cn1 (stereo not given)	inconclusive [activator, partial curve, poor fit]	–
COc1ccc2c(c1)NC(C)(C)C=C2C	–	inactive: -3.32%
Cc1ccccc1CC(=O)NCCN1CCCCC1	inconclusive [activator, single point]	–
O=C1OC(c2ccccc2)/C(=C(/O)c2ccccc2)C1=O (stereo not given)	inconclusive [activator, partial curve, poor fit]	–
COc1ccccc1-c1ccc(NC2CCCC2)nn1	inconclusive [activator, partial curve, poor fit]	–
O=C(CSc1nc2ccccc2n1Cc1ccccc1)N/N=C/c1ccco1	–	inactive: -1.59%
Nc1nc2ccc(-c3nc4ccccc4o3)cc2s1	inconclusive [activator, full curve, poor fit]	–
N#Cc1ccccc1OCC(=O)Nc1nnc(C2CC2)s1	inconclusive [activator, full curve, poor fit]	–
O=C(Nc1ccc(Br)cn1)c1ccc([N+](=O)[O-])cc1Cl	inconclusive [activator, partial curve, poor fit]	–
C#Cc1ccc(CN2CCC(C(=O)Nc3ccc(Oc4ccccc4)nc3)CC2)cc1	inconclusive [activator, partial curve, poor fit]	–
C/C(=N\NC(=O)c1ccc([N+](=O)[O-])cc1Cl)c1ccccc1	–	inactive: 12.5%
O=C1OC(c2ccccc2)=C/C1=C/N1CCOCC1	inconclusive [activator, full curve, poor fit]	–
COC(=O)c1coc(-c2ccc(C)cc2)c1C(=O)OC	inconclusive [activator, partial curve, poor fit]	–
